Among the data in PMC9911399, “Two distinct binding modes provide the RNA-binding protein RbFox with extraordinary sequence specificity” are binding signal values, retold here.

T1: RBFOX1 RRM RbFoxmut (Fox-RRM*) (Homo sapiens, UniProt Q9NWB1 109-208, R118D;E147R;N151S;E152T)
T1 sequence: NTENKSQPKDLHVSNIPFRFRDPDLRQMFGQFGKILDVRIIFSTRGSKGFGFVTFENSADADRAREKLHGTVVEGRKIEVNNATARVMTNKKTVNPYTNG

B1: UGAGUAG (DNA:RNA)
RNA: GGGAGACCGGAAUUCAGAUUGUCCUGAGUAGUUAAAUCCCGUCGUAGCCACCA
DNA 1: CAATCTGAATTCCGGTCTCCC
DNA 2: TGGTGGCTACGACGGGATT
B2: CACCUGU (DNA:RNA)
RNA: B1 RNA with U25C, G26A, A27C, G28C, A30G, G31U
DNA 1: CAATCTGAATTCCGGTCTCCC
DNA 2: TGGTGGCTACGACGGGATT
B3: UUCUUGC (DNA:RNA)
RNA: B1 RNA with G26U, A27C, G28U, A30G, G31C
DNA 1: CAATCTGAATTCCGGTCTCCC
DNA 2: TGGTGGCTACGACGGGATT
B4: CACUGGC (DNA:RNA)
RNA: GGGAGACCGGAAUUCAGAUUGUCCCACUGGCUUAAAUCCCGUCGUAGCCACCA
DNA 1: CAATCTGAATTCCGGTCTCCC
DNA 2: TGGTGGCTACGACGGGATT
B5: AUAGUGU (DNA:RNA)
RNA: B1 RNA with U25A, G26U, A30G, G31U
DNA 1: CAATCTGAATTCCGGTCTCCC
DNA 2: TGGTGGCTACGACGGGATT
B6: UUAAACG (DNA:RNA)
RNA: B1 RNA with G26U, G28A, U29A, A30C
DNA 1: CAATCTGAATTCCGGTCTCCC
DNA 2: TGGTGGCTACGACGGGATT
B7: UGUAAUU (DNA:RNA)
RNA: B1 RNA with A27U, G28A, U29A, A30U, G31U
DNA 1: CAATCTGAATTCCGGTCTCCC
DNA 2: TGGTGGCTACGACGGGATT
B8: AGAGAAU (DNA:RNA)
RNA: B1 RNA with U25A, U29A, G31U
DNA 1: CAATCTGAATTCCGGTCTCCC
DNA 2: TGGTGGCTACGACGGGATT
B9: ACAACGU (DNA:RNA)
RNA: B4 RNA with C25A, A26C, C27A, U28A, G29C, C31U
DNA 1: CAATCTGAATTCCGGTCTCCC
DNA 2: TGGTGGCTACGACGGGATT
B10: UACACCA (DNA:RNA)
RNA: B4 RNA with C25U, U28A, G29C, G30C, C31A
DNA 1: CAATCTGAATTCCGGTCTCCC
DNA 2: TGGTGGCTACGACGGGATT
B11: GAAGAAA (DNA:RNA)
RNA: B1 RNA with U25G, G26A, U29A, G31A
DNA 1: CAATCTGAATTCCGGTCTCCC
DNA 2: TGGTGGCTACGACGGGATT
B12: GAAUAUA (DNA:RNA)
RNA: B4 RNA with C25G, C27A, G29A, G30U, C31A
DNA 1: CAATCTGAATTCCGGTCTCCC
DNA 2: TGGTGGCTACGACGGGATT
B13: CCCUCAU (DNA:RNA)
RNA: B4 RNA with A26C, G29C, G30A, C31U
DNA 1: CAATCTGAATTCCGGTCTCCC
DNA 2: TGGTGGCTACGACGGGATT
B14: GGUCAUU (DNA:RNA)
RNA: B1 RNA with U25G, A27U, G28C, U29A, A30U, G31U
DNA 1: CAATCTGAATTCCGGTCTCCC
DNA 2: TGGTGGCTACGACGGGATT
B15: AAGCCUU (DNA:RNA)
RNA: B4 RNA with C25A, C27G, U28C, G29C, G30U, C31U
DNA 1: CAATCTGAATTCCGGTCTCCC
DNA 2: TGGTGGCTACGACGGGATT
B16: UGACAUU (DNA:RNA)
RNA: B1 RNA with G28C, U29A, A30U, G31U
DNA 1: CAATCTGAATTCCGGTCTCCC
DNA 2: TGGTGGCTACGACGGGATT
B17: CAUUCUC (DNA:RNA)
RNA: B4 RNA with C27U, G29C, G30U
DNA 1: CAATCTGAATTCCGGTCTCCC
DNA 2: TGGTGGCTACGACGGGATT
B18: UCUGUCU (DNA:RNA)
RNA: B1 RNA with G26C, A27U, A30C, G31U
DNA 1: CAATCTGAATTCCGGTCTCCC
DNA 2: TGGTGGCTACGACGGGATT
B19: AUACGGG (DNA:RNA)
RNA: B4 RNA with C25A, A26U, C27A, U28C, C31G
DNA 1: CAATCTGAATTCCGGTCTCCC
DNA 2: TGGTGGCTACGACGGGATT
B20: AAGAGCA (DNA:RNA)
RNA: B4 RNA with C25A, C27G, U28A, G30C, C31A
DNA 1: CAATCTGAATTCCGGTCTCCC
DNA 2: TGGTGGCTACGACGGGATT
B21: CCCGAGC (DNA:RNA)
RNA: B4 RNA with A26C, U28G, G29A
DNA 1: CAATCTGAATTCCGGTCTCCC
DNA 2: TGGTGGCTACGACGGGATT
B22: ACUCAAA (DNA:RNA)
RNA: B1 RNA with U25A, G26C, A27U, G28C, U29A, G31A
DNA 1: CAATCTGAATTCCGGTCTCCC
DNA 2: TGGTGGCTACGACGGGATT
B23: ACAUAGC (DNA:RNA)
RNA: B4 RNA with C25A, A26C, C27A, G29A
DNA 1: CAATCTGAATTCCGGTCTCCC
DNA 2: TGGTGGCTACGACGGGATT
B24: GGCGUUG (DNA:RNA)
RNA: B1 RNA with U25G, A27C, A30U
DNA 1: CAATCTGAATTCCGGTCTCCC
DNA 2: TGGTGGCTACGACGGGATT
B25: UCCCUAC (DNA:RNA)
RNA: B1 RNA with G26C, A27C, G28C, G31C
DNA 1: CAATCTGAATTCCGGTCTCCC
DNA 2: TGGTGGCTACGACGGGATT
B26: GCGGAGG (DNA:RNA)
RNA: B1 RNA with U25G, G26C, A27G, U29A, A30G
DNA 1: CAATCTGAATTCCGGTCTCCC
DNA 2: TGGTGGCTACGACGGGATT
B27: GACAAAC (DNA:RNA)
RNA: B4 RNA with C25G, U28A, G29A, G30A
DNA 1: CAATCTGAATTCCGGTCTCCC
DNA 2: TGGTGGCTACGACGGGATT
B28: UCCAUGG (DNA:RNA)
RNA: B1 RNA with G26C, A27C, G28A, A30G
DNA 1: CAATCTGAATTCCGGTCTCCC
DNA 2: TGGTGGCTACGACGGGATT
B29: UAUCAUU (DNA:RNA)
RNA: B4 RNA with C25U, C27U, U28C, G29A, G30U, C31U
DNA 1: CAATCTGAATTCCGGTCTCCC
DNA 2: TGGTGGCTACGACGGGATT
B30: UAGCAUA (DNA:RNA)
RNA: B4 RNA with C25U, C27G, U28C, G29A, G30U, C31A
DNA 1: CAATCTGAATTCCGGTCTCCC
DNA 2: TGGTGGCTACGACGGGATT
B31: CCCAUCG (DNA:RNA)
RNA: B4 RNA with A26C, U28A, G29U, G30C, C31G
DNA 1: CAATCTGAATTCCGGTCTCCC
DNA 2: TGGTGGCTACGACGGGATT

Positions count from the first letter of the chain named. This is one part of the list.

In this assay the target is T1, RBFOX1 RRM RbFoxmut (Fox-RRM*). The assay is described as follows: EMSA; HiTS-Eq, 1 nM pool, 10 min; buffer printed only for the single-RNA assays: 10 mM Tris pH 7.5, 150 mM NaCl, 3.4 mM EDTA, 0.001% NP-40, 30 C. To be noted: tags: His6 N-terminal (pET28a); label: 5' 32P. In outline:
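Purified RbFox RRM, wild type or mutant, was incubated for 10 min in 50 µL with 1 nM of a 5′-radiolabelled RNA pool carrying 7 randomized nucleotides, whose flanks were annealed to DNA oligonucleotides, over a series of increasing protein concentrations. Unbound RNA was resolved on 8% native PAGE, cut out, reverse-transcribed, barcoded by PCR and sequenced on an Illumina HiSeq 2500. Relative association constants were derived from changes in read counts for each RNA species versus the control reaction and normalised to the cognate motif.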
Consider B1, for which the binding signal is 0.121 KA relative to UGCAUGU. Then B2, with 0.0998 KA relative to UGCAUGU; and B3, with 0.118 KA relative to UGCAUGU; and B4, with 0.106 KA relative to UGCAUGU. With B5, the binding signal is 0.172 KA relative to UGCAUGU. Then B6, with 0.0812 KA relative to UGCAUGU; and B7, with 0.0891 KA relative to UGCAUGU. For B8, the binding signal was 0.0979 KA relative to UGCAUGU.

Take B9: the binding signal was 0.0917 KA relative to UGCAUGU. The figure for B10 is 0.101 KA relative to UGCAUGU; for B11 it is 0.0689 KA relative to UGCAUGU; for B12 it is 0.142 KA relative to UGCAUGU.

For the molecule B13, the binding signal was 0.0691 KA relative to UGCAUGU. With B14, the binding signal is 0.0843 KA relative to UGCAUGU. In the case of B15, the binding signal is 0.0677 KA relative to UGCAUGU.

With B16, the binding signal was 0.0809 KA relative to UGCAUGU. The figure for B17 is 0.0866 KA relative to UGCAUGU; for B18 it is 0.0967 KA relative to UGCAUGU. In the case of B19, the binding signal was 0.064 KA relative to UGCAUGU. In the case of B20, the binding signal was 0.12 KA relative to UGCAUGU. With B21, the binding signal was 0.103 KA relative to UGCAUGU. Consider B22, for which the binding signal is 0.0895 KA relative to UGCAUGU. Then B23, with 0.108 KA relative to UGCAUGU. On to B24, for which the binding signal is 0.367 KA relative to UGCAUGU. Then B25, with 0.0633 KA relative to UGCAUGU; and B26, with 0.0907 KA relative to UGCAUGU.

Regarding B27, the binding signal was 0.0549 KA relative to UGCAUGU. As for B28, the binding signal is 0.0855 KA relative to UGCAUGU. Take B29: the binding signal is 0.0737 KA relative to UGCAUGU. The figure for B30 is 0.0997 KA relative to UGCAUGU.

As to B31, the binding signal was 0.0928 KA relative to UGCAUGU.
